# The other results are listed elsewhere or left out.
# Key:
# Assay in all cases: glycan array binding signal (z-score within array); higher = stronger binding
# Conditions in all cases: glycan notation: IUPAC condensed, linker removed
# [1] = molecular target: Fuc(a1-2)Gal
# Method in brief: (§1)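 Arrays were curated from the Consortium for Functional Glycomics database, 3228 in total, and kept only where the protein sequence was available. Binding is expressed as a within-array Z-score. This score was averaged across arrays of the same protein sequence at different concentrations or buffers and across linkers, and negative values can be read as non-binding.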
# [2] = molecular target: Fuc(a1-2)Gal(b1-3)GalNAc
# Method in brief: as §1
# [3] = molecular target: Fuc(a1-2)Gal(b1-3)GalNAc(a1-3)[Fuc(a1-2)]Gal(b1-4)Glc
# Method in brief: as §1
# [4] = molecular target: Fuc(a1-2)Gal(b1-3)GalNAc(a1-3)[Fuc(a1-2)]Gal(b1-4)GlcNAc
# Method in brief: as §1
# [5] = molecular target: Fuc(a1-2)Gal(b1-3)GalNAc(b1-3)Gal
# Method in brief: as §1
# [6] = molecular target: Fuc(a1-2)Gal(b1-3)GalNAc(b1-3)Gal(a1-4)Gal(b1-4)Glc
# Method in brief: as §1
# [7] = molecular target: Fuc(a1-2)Gal(b1-3)GalNAc(b1-4)[Neu5Ac(a2-3)]Gal(b1-4)Glc
# Method in brief: as §1
# [8] = molecular target: Fuc(a1-2)Gal(b1-3)GlcNAc
# Method in brief: as §1
# [9] = molecular target: Fuc(a1-2)Gal(b1-3)GlcNAc(b1-2)Man(a1-3)[Fuc(a1-2)Gal(b1-3)GlcNAc(b1-2)Man(a1-6)]Man(b1-4)GlcNAc(b1-4)GlcNAc
# Method in brief: as §1
# [10] = molecular target: Fuc(a1-2)Gal(b1-3)GlcNAc(b1-2)Man(a1-3)[Fuc(a1-2)Gal(b1-3)GlcNAc(b1-2)Man(a1-6)]Man(b1-4)GlcNAc(b1-4)[Fuc(a1-6)]GlcNAc
# Method in brief: as §1
# [11] = molecular target: Fuc(a1-2)Gal(b1-3)GlcNAc(b1-3)Gal(b1-4)Glc
# Method in brief: as §1
# [12] = molecular target: Fuc(a1-2)Gal(b1-3)GlcNAc(b1-3)GalNAc
# Method in brief: as §1
# [13] = molecular target: Fuc(a1-2)Gal(b1-3)GlcNAc(b1-3)[Fuc(a1-2)Gal(b1-3)GlcNAc(b1-6)]GalNAc
# Method in brief: as §1
# [14] = molecular target: Fuc(a1-2)Gal(b1-3)GlcNAc(b1-3)[Gal(b1-4)GlcNAc(b1-6)]Gal(b1-4)Glc
# Method in brief: as §1
# [15] = molecular target: Fuc(a1-2)Gal(b1-3)GlcNAc(b1-3)[Neu5Ac(a2-6)Gal(b1-4)GlcNAc(b1-6)]Gal(b1-4)Glc
# Method in brief: as §1
# [16] = molecular target: Fuc(a1-2)Gal(b1-3)GlcNAc6S
# Method in brief: as §1
# [17] = molecular target: Fuc(a1-2)Gal(b1-3)[Fuc(a1-4)]GlcNAc
# Method in brief: as §1
# [18] = molecular target: Fuc(a1-2)Gal(b1-3)[Fuc(a1-4)]GlcNAc(b1-2)Man(a1-3)[Fuc(a1-2)Gal(b1-3)[Fuc(a1-4)]GlcNAc(b1-2)Man(a1-3)]Man(b1-4)GlcNAc(b1-4)GlcNAc
# Method in brief: as §1
# [19] = molecular target: Fuc(a1-2)Gal(b1-3)[Fuc(a1-4)]GlcNAc(b1-2)Man(a1-3)[Fuc(a1-2)Gal(b1-3)[Fuc(a1-4)]GlcNAc(b1-2)Man(a1-6)]Man(b1-4)GlcNAc(b1-4)[Fuc(a1-6)]GlcNAc(b1-4)[Fuc(a1-6)]GlcNAc
# Method in brief: as §1
# [20] = molecular target: Fuc(a1-2)Gal(b1-3)[Fuc(a1-4)]GlcNAc(b1-3)[Fuc(a1-3)[Gal(b1-4)]GlcNAc(b1-6)]Gal(b1-4)Glc
# Method in brief: as §1
# [21] = molecular target: Fuc(a1-2)Gal(b1-3)[Fuc(a1-4)]GlcNAc(b1-3)[Gal(b1-4)GlcNAc(b1-6)]Gal(b1-4)Glc
# Method in brief: as §1
# [22] = molecular target: Fuc(a1-2)Gal(b1-4)Glc
# Method in brief: as §1
# [23] = molecular target: Fuc(a1-2)Gal(b1-4)Glc6S
# Method in brief: as §1
# [24] = molecular target: Fuc(a1-2)Gal(b1-4)GlcNAc
# Method in brief: as §1
# [25] = molecular target: Fuc(a1-2)Gal(b1-4)GlcNAc(b1-2)Man
# Method in brief: as §1
# [26] = molecular target: Fuc(a1-2)Gal(b1-4)GlcNAc(b1-2)Man(a1-3)[Fuc(a1-2)Gal(b1-4)GlcNAc(b1-2)Man(a1-6)]Man(b1-4)GlcNAc(b1-4)GlcNAc
# Method in brief: as §1
# [27] = molecular target: Fuc(a1-2)Gal(b1-4)GlcNAc(b1-2)Man(a1-3)[Fuc(a1-2)Gal(b1-4)GlcNAc(b1-2)Man(a1-6)]Man(b1-4)GlcNAc(b1-4)[Fuc(a1-6)]GlcNAc
# Method in brief: as §1
# [28] = molecular target: Fuc(a1-2)Gal(b1-4)GlcNAc(b1-2)[Fuc(a1-2)Gal(b1-4)GlcNAc(b1-4)]Man(a1-3)[Fuc(a1-2)Gal(b1-4)GlcNAc(b1-2)Man(a1-6)]Man(b1-4)GlcNAc(b1-4)GlcNAc
# Method in brief: as §1
# [29] = molecular target: Fuc(a1-2)Gal(b1-4)GlcNAc(b1-3)Gal(b1-4)GlcNAc
# Method in brief: as §1
# [30] = molecular target: Fuc(a1-2)Gal(b1-4)GlcNAc(b1-3)Gal(b1-4)GlcNAc(b1-2)Man(a1-3)[Fuc(a1-2)Gal(b1-4)GlcNAc(b1-3)Gal(b1-4)GlcNAc(b1-2)Man(a1-6)]Man(b1-4)GlcNAc(b1-4)GlcNAc
# Method in brief: as §1
binder,measurement,setting,value
Fm1D (Escherichia coli) (protein) FSCNVDGGSSIGAGTTSVYVNLDPVIQPGQNLVVDLSQHISCWNDYGGWYDTDHINLVQGSAFAGSLQSYKGSLYWNNVTYPFPLTTNTNVLDIGDKTPMPLPLKLYITPVGAAGGVVIKAGEVIARIHMYKIATLGSGNPRNFTWNIISNNSVVMPTHHHHHH,glycan array binding signal (z-score),[1],-0.141
same,glycan array binding signal (z-score),[2],-0.133
same,glycan array binding signal (z-score),[3],-0.128
same,glycan array binding signal (z-score),[4],-0.123
same,glycan array binding signal (z-score),[5],-0.135
same,glycan array binding signal (z-score),[6],-0.14
same,glycan array binding signal (z-score),[7],-0.146
same,glycan array binding signal (z-score),[8],-0.142
same,glycan array binding signal (z-score),[9],-0.142
same,glycan array binding signal (z-score),[10],-0.131
same,glycan array binding signal (z-score),[11],-0.147
same,glycan array binding signal (z-score),[12],-0.141
same,glycan array binding signal (z-score),[13],-0.144
same,glycan array binding signal (z-score),[14],-0.148
same,glycan array binding signal (z-score),[15],-0.146
same,glycan array binding signal (z-score),[16],-0.136
same,glycan array binding signal (z-score),[17],-0.145
same,glycan array binding signal (z-score),[18],-0.136
same,glycan array binding signal (z-score),[19],-0.141
same,glycan array binding signal (z-score),[20],-0.146
same,glycan array binding signal (z-score),[21],-0.149
same,glycan array binding signal (z-score),[22],-0.141
same,glycan array binding signal (z-score),[23],-0.14
same,glycan array binding signal (z-score),[24],-0.145
same,glycan array binding signal (z-score),[25],-0.138
same,glycan array binding signal (z-score),[26],-0.14
same,glycan array binding signal (z-score),[27],-0.139
same,glycan array binding signal (z-score),[28],-0.135
same,glycan array binding signal (z-score),[29],-0.144
same,glycan array binding signal (z-score),[30],-0.141
